Assay results from the supplement of paper PMC4967469.
Lines with a small IC50 respond at low doses; a fit beyond the top or the lowest dose is shown as a bound at that dose. AUC, from the same fit, is the share of area under the viability curve across the 256-fold dose range; it is 1 without any effect and falls as sensitivity rises. For part of these data: A top dose marked as inferred is not printed in the source and was worked back from the curve model. For part of these data: An entry number marks a drug with two screens in the source, which often give different values.

Tests used:
Experiment in all cases: Viability of human cancer cell lines after 72 h of drug (GDSC screen)
JQ1 = compound: Cc1sc2c(c1C)C(c1ccc(Cl)cc1)=N[C@@H](CC(=O)OC(C)(C)C)c1nnc(C)n1-2 [JQ1]
Method: (§1)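 Human cancer cell lines in 384-well plates, medium with 10% serum, drug for 72 h over a 256-fold dose range (nine 2-fold or five 4-fold steps up to the top dose). Adherent lines were fixed and stained with the nucleic acid dye Syto60, suspension lines read with resazurin; signal relative to control wells, capped at 0 and 100%. One two-parameter sigmoid per drug and line, fitted in a mixed model over all curves with the slope shared within a line.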

SB-715992 = compound: Cc1ccc(C(=O)N(CCCN)[C@@H](c2nc3cc(Cl)ccc3c(=O)n2Cc2ccccc2)C(C)C)cc1 [SB-715992]; details: top dose 0.128 µM; top dose inferred
Method: as §1

FTI-277 = compound: COC(=O)[C@H](CCSC)NC(=O)c1ccc(NC[C@@H](N)CS)cc1-c1ccccc1 [FTI-277]; details: top dose 1.024 µM; top dose inferred
Method: as §1

NSC-207895 = compound: CN1CCN(c2ccc([N+](=O)[O-])c3no[n+]([O-])c23)CC1 [NSC-207895]; details: top dose 20 µM; top dose inferred
Method: as §1

JNK Inhibitor VIII = compound: CCOc1nc(NC(=O)Cc2cc(OC)ccc2OC)cc(N)c1C#N [JNK Inhibitor VIII]; details: top dose 10 µM; top dose inferred
Method: as §1

AMG-706 = compound: CC1(C)CNc2cc(NC(=O)c3cccnc3NCc3ccncc3)ccc21 [AMG-706]; details: top dose 2 µM; top dose inferred
Method: as §1

JNJ-26854165 = compound: c1ccc2c(CCNc3ccc(Nc4ccncc4)cc3)c[nH]c2c1 [JNJ-26854165]; details: top dose 10 µM
Method: as §1

OSI-906 = compound: C[C@]1(O)C[C@@H](c2nc(-c3ccc4ccc(-c5ccccc5)nc4c3)c3c(N)nccn32)C1 [OSI-906]; details: top dose 2.56 µM; top dose inferred
Method: as §1

YM155 = compound: COCC[n+]1c2c(n(Cc3cnccn3)c1C)C(=O)c1ccccc1C2=O [YM155]; details: top dose 5.12 µM
Method: as §1

Belinostat = compound: O=C(/C=C/c1cccc(S(=O)(=O)Nc2ccccc2)c1)NO [Belinostat]; details: top dose 20 µM; top dose inferred
Method: as §1

[1] = top dose 1 µM, screen: GDSC drug entry 1218, top dose inferred
[2] = top dose 2.56 µM, screen: GDSC drug entry 163

| Cell Line | AUC (JQ1; [1]) | IC50 (JQ1; [1]) [nM] | AUC (JQ1; [2]) | IC50 (JQ1; [2]) [nM] | AUC (SB-715992) | IC50 (SB-715992) [nM] | AUC (FTI-277) | IC50 (FTI-277) [nM] | AUC (NSC-207895) | IC50 (NSC-207895) [nM] | AUC (JNK Inhibitor VIII) | IC50 (JNK Inhibitor VIII) [nM] | AUC (AMG-706) | IC50 (AMG-706) [nM] | AUC (JNJ-26854165) | IC50 (JNJ-26854165) [nM] | AUC (OSI-906) | IC50 (OSI-906) [nM] | AUC (YM155) | IC50 (YM155) [nM] | AUC (Belinostat) | IC50 (Belinostat) [nM] |
| --- | --- | --- | --- | --- | --- | --- | --- | --- | --- | --- | --- | --- | --- | --- | --- | --- | --- | --- | --- | --- | --- | --- |
| MDA-MB-157 (breast, adherent) | 0.983 | > 1000 | 0.803 | 1310 | 0.981 | > 128 | 0.981 | > 1020 | 0.988 | > 20000 | 0.988 | > 10000 | 0.947 | > 2000 | 0.898 | > 10000 | 0.983 | > 2560 | 0.325 | 103 | 0.548 | 1690 |
| MDA-MB-361 (breast, adherent) | 0.986 | > 1000 | 0.59 | 281 | 0.983 | > 128 | 0.95 | > 1020 | 0.983 | > 20000 | 0.988 | > 10000 | 0.974 | > 2000 | 0.831 | 6240 | 0.98 | > 2560 | 0.535 | 399 | 0.395 | 645 |
| ME-180 (cervix, adherent) | 0.768 | 390 | 0.743 | 826 | 0.658 | 22.4 | 0.985 | > 1020 | 0.96 | > 20000 | 0.958 | > 10000 | 0.948 | > 2000 | 0.971 | > 10000 | 0.984 | > 2560 | 0.055 | < 20 | 0.408 | 690 |
| MES-SA (uterus, adherent) | 0.991 | > 1000 | 0.711 | 565 | 0.976 | > 128 | 0.99 | > 1020 | 0.987 | > 20000 | 0.991 | > 10000 | 0.992 | > 2000 | 0.939 | > 10000 | 0.992 | > 2560 | 0.885 | 4160 | 0.992 | > 20000 |
| MFE-319 (endometrium, adherent) | 0.988 | > 1000 | 0.656 | 428 | 0.638 | 19 | 0.973 | > 1020 | 0.989 | > 20000 | 0.952 | > 10000 | 0.913 | > 2000 | 0.961 | > 10000 | 0.989 | > 2560 | 0.967 | > 5120 | 0.924 | > 20000 |
| MHH-ES-1 (Ewing sarcoma, adherent) | 0.984 | > 1000 | 0.726 | 697 | 0.495 | 7.73 | 0.925 | > 1020 | 0.985 | > 20000 | 0.909 | > 10000 | 0.904 | > 2000 | 0.852 | 7550 | 0.847 | 1850 | 0.026 | < 20 | 0.296 | 335 |
| MIA-PaCa-2 (pancreas, adherent) |  |  | 0.711 | 674 | 0.944 | > 128 | 0.973 | > 1020 | 0.983 | > 20000 | 0.91 | > 10000 | 0.895 | > 2000 | 0.89 | > 10000 | 0.834 | 1910 | 0.312 | 90 | 0.606 | 2520 |
| MKN1 (stomach, adherent) | 0.98 | > 1000 | 0.71 | 650 | 0.925 | > 128 | 0.982 | > 1020 | 0.822 | 12500 | 0.974 | > 10000 | 0.96 | > 2000 | 0.949 | > 10000 | 0.984 | > 2560 | 0.033 | < 20 | 0.533 | 1550 |
| MKN28 (stomach, adherent) |  |  | 0.801 | 1280 | 0.929 | > 128 | 0.862 | 914 | 0.826 | 12400 | 0.976 | > 10000 | 0.953 | > 2000 | 0.868 | 9520 | 0.947 | > 2560 | 0.125 | < 20 | 0.649 | 3270 |
| NCI-H358 (lung adenocarcinoma, adherent) | 0.963 | > 1000 | 0.836 | 1980 | 0.649 | 21.8 | 0.943 | > 1020 | 0.913 | > 20000 | 0.918 | > 10000 | 0.897 | > 2000 | 0.924 | > 10000 | 0.694 | 600 | 0.031 | < 20 | 0.325 | 381 |
| NCI-H520 (lung squamous cell carcinoma, adherent) | 0.983 | > 1000 | 0.832 | 1720 | 0.545 | 10.7 | 0.987 | > 1020 | 0.985 | > 20000 | 0.981 | > 10000 | 0.962 | > 2000 | 0.957 | > 10000 | 0.985 | > 2560 | 0.09 | < 20 | 0.415 | 726 |
| NCI-H647 (non-small cell lung carcinoma, adherent) |  |  | 0.857 | 2240 | 0.669 | 24.3 | 0.975 | > 1020 | 0.926 | > 20000 | 0.98 | > 10000 | 0.978 | > 2000 | 0.837 | 7180 | 0.944 | > 2560 | 0.039 | < 20 | 0.482 | 1120 |
